From the supplement of paper PMC10126150
Values marked as one replicate rest on one cluster of the flow cell; about a third of the high ones do not repeat.
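Further: ATP exposure 15 min at 22 °C before imaging.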

Each sequence was assayed on ATP (assay: switch fluorescence ratio, 500 uM ATP over buffer (Cy3 cluster intensity, sum of 5 cycles each) (fold (ratio)); higher = stronger signal-on switching upon ATP binding; sequences stand for … in TCGTCGGCAGCGTCAGATGTGTATAAGAGACAGTTTTTTTTTTTTTTTTTTTTTTTTT…TC). Conditions: aptamer strand: ATP DNA aptamer (quencher-CACCTGGGGGAGTATTGCGGAGGAAGG + anchor), 100 nM annealed; ATP concentration: 500 uM; one replicate.
How it was run: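 Imaging in selection buffer was followed by imaging after 15 min with 500 uM ATP at 22 °C, for Cy3-labelled switching-strand clusters annealed to 100 nM quencher-labelled ATP aptamer on a modified Illumina MiSeq flow-cell. Five of these buffer/ATP cycles ran, separated by NaOH stripping and re-annealing. The fluorescence ratio per cluster is summed target-cycle over summed buffer-cycle Cy3 intensity, averaged per switch-domain sequence; clusters outside 100-1000 RFU were removed.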
AGAAGAGCAA showed a switch fluorescence ratio of 1.68. AGAAGATCTC gave a switch fluorescence ratio of 0.975. With AGAAGCGCCC the switch fluorescence ratio was 1.01. Sequence AGAAGCTGTG has a switch fluorescence ratio of 1.01. AGAAGGCAGT was tested, and the switch fluorescence ratio was 0.98. In the case of AGAAGGGTCC, the switch fluorescence ratio is reported as 1.06. AGAAGTAAAG showed a switch fluorescence ratio of 1.04. Sequence AGAAGTATCC has a switch fluorescence ratio of 1.11. Work on AGAAGTATGA yielded a switch fluorescence ratio of 1.03. AGAAGTGT was tested, and the switch fluorescence ratio was 1. AGAAGTTTAA showed a switch fluorescence ratio of 0.925. Sequence AGAATACGCT has a switch fluorescence ratio of 1. AGAATATTGT showed a switch fluorescence ratio of 0.966. AGAATATTTC gave a switch fluorescence ratio of 0.991. AGAATCGCTC gave a switch fluorescence ratio of 0.975. Sequence AGAATCTCGA has a switch fluorescence ratio of 0.978. AGAATGCTGA showed a switch fluorescence ratio of 0.982. AGAATGGCGG showed a switch fluorescence ratio of 0.977. Sequence AGAATTACGC has a switch fluorescence ratio of 1.07. In the case of AGAATTCGA, the switch fluorescence ratio is reported as 0.931. AGAATTCGGC was tested, and the switch fluorescence ratio was 1. Sequence AGAATTTAT has a switch fluorescence ratio of 0.967. Sequence AGAATTTCGT has a switch fluorescence ratio of 1.01. With AGACACGTCT the switch fluorescence ratio was 1.01. AGACAGCAAG showed a switch fluorescence ratio of 0.955. Sequence AGACAGTAGT has a switch fluorescence ratio of 1.04. Work on AGACCGGCAA yielded a switch fluorescence ratio of 1.23. AGACCGGGTC gave a switch fluorescence ratio of 0.94. For AGACGAAAGG, the switch fluorescence ratio was 1.02. AGACGCGTTC gave a switch fluorescence ratio of 0.991. For AGACGGGTCT, the switch fluorescence ratio was 1.04. For AGACGTAGAT, the switch fluorescence ratio was 0.994. AGACGTCGAT showed a switch fluorescence ratio of 1.05. For AGACTCACA, the switch fluorescence ratio was 1.29. In the case of AGACTCATCA, the switch fluorescence ratio is reported as 0.947. In the case of AGACTGAAAT, the switch fluorescence ratio is reported as 0.989. With AGACTGTGG the switch fluorescence ratio was 0.968. AGAGAAAAAC gave a switch fluorescence ratio of 1.05. Sequence AGAGAAAATA has a switch fluorescence ratio of 0.952. Work on AGAGAAACCG yielded a switch fluorescence ratio of 1.11. With AGAGAAATCG the switch fluorescence ratio was 1.06. In the case of AGAGACGGAT, the switch fluorescence ratio is reported as 1.01. With AGAGAGGTTG the switch fluorescence ratio was 1.03. For AGAGATCCTG, the switch fluorescence ratio was 1.02. Sequence AGAGATCGGT has a switch fluorescence ratio of 1. With AGAGATGCTA the switch fluorescence ratio was 1.04. AGAGATGTAT showed a switch fluorescence ratio of 0.986. AGAGATTCTA showed a switch fluorescence ratio of 1.02. AGAGCAGATG showed a switch fluorescence ratio of 0.992. Sequence AGAGCATAAG has a switch fluorescence ratio of 1.04. With AGAGCGCAAT the switch fluorescence ratio was 5.61. AGAGCGGGGA showed a switch fluorescence ratio of 1.02. Work on AGAGCGGTCT yielded a switch fluorescence ratio of 1.07. Sequence AGAGCTAGTG has a switch fluorescence ratio of 0.953. AGAGCTCTT was tested, and the switch fluorescence ratio was 0.965. For AGAGGAAGCC, the switch fluorescence ratio was 0.941. Sequence AGAGGAGCTA has a switch fluorescence ratio of 1.01. For AGAGGCAGAT, the switch fluorescence ratio was 0.974. Sequence AGAGGCCATG has a switch fluorescence ratio of 0.979. AGAGGGAGAG was tested, and the switch fluorescence ratio was 0.998. Work on AGAGGGCTAC yielded a switch fluorescence ratio of 1. AGAGGGCTCT gave a switch fluorescence ratio of 1.01. In the case of AGAGGTACTC, the switch fluorescence ratio is reported as 1.03. AGAGGTCACA gave a switch fluorescence ratio of 0.993. AGAGGTGAGT showed a switch fluorescence ratio of 1. AGAGGTGTCA showed a switch fluorescence ratio of 0.993. In the case of AGAGTAAAAC, the switch fluorescence ratio is reported as 1.03. With AGAGTAAGGG the switch fluorescence ratio was 0.972. Work on AGAGTAATT yielded a switch fluorescence ratio of 0.965. AGAGTAGCGG was tested, and the switch fluorescence ratio was 1.09. AGAGTCAGAT showed a switch fluorescence ratio of 0.997. AGAGTCGGCC showed a switch fluorescence ratio of 0.991. Work on AGAGTTAGTT yielded a switch fluorescence ratio of 0.973. AGAGTTTCTG was tested, and the switch fluorescence ratio was 1. Work on AGATAAATTA yielded a switch fluorescence ratio of 0.978. For AGATAAGAGT, the switch fluorescence ratio was 1.01. With AGATAATCTG the switch fluorescence ratio was 1.03. For AGATACAACG, the switch fluorescence ratio was 1.07. In the case of AGATACCAGT, the switch fluorescence ratio is reported as 1.01. Sequence AGATAGAAGT has a switch fluorescence ratio of 1.01. In the case of AGATAGTCAG, the switch fluorescence ratio is reported as 0.992. In the case of AGATCCCAGC, the switch fluorescence ratio is reported as 1.02. Sequence AGATCCCTCA has a switch fluorescence ratio of 0.998. With AGATCCGTTT the switch fluorescence ratio was 0.985. Sequence AGATCGGATG has a switch fluorescence ratio of 1.01.
